Here are results for 32 molecules from PubChem BioAssay AID1645887 (National Center for Advancing Translational Sciences (NCATS), 2021).

Where “and” joins values, the source holds several entries; their conditions need not be identical. Equal entries are not always repeated. Among all 16,000 compounds or so, about 40 (0.2%) were called active. Another 1% or so got no clear call; they are omitted. The call rests on the fitted dose curve; in most records, active means well fitted activation curve with a large enough effect; inconclusive means small, poorly fitted or top-dose-only effect, or another doubt; inactive means no such curve, though single readings can be large or run the other way. Some of the results follow.
On the % scale 0 is the no-effect control and ±100 the full control effect.

In this experiment the target is Rap guanine nucleotide exchange factor 4 (Homo sapiens) (UniProt Q8WZA2). Briefly: Validation qHTS for agonist of cAMP-regulated guanine nucleotide exchange factor 4 (EPAC2).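 Further: exchange makes BODIPY-GDP fluorescence drop when released from Rap1B; series mostly up to about 150 µM.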 The note with it: EPAC2 Rap1B BODIPY-GDP exchange, fluorescence; activation: active compounds read high. The procedure, abridged: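 Signal normalized against 6.5 mM cAMP as agonist control. Mix of EPAC2 (100 nM), RAP1B-BODIPY-GDP (250 nM) and GDP (50 uM) was read kinetically at 480/540 nm, every 5 min over 30 min, after 5 min room-temperature incubation with compound.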
Chain of UniProt Q8WZA2 (Q8WZA2 whole entry, looked up): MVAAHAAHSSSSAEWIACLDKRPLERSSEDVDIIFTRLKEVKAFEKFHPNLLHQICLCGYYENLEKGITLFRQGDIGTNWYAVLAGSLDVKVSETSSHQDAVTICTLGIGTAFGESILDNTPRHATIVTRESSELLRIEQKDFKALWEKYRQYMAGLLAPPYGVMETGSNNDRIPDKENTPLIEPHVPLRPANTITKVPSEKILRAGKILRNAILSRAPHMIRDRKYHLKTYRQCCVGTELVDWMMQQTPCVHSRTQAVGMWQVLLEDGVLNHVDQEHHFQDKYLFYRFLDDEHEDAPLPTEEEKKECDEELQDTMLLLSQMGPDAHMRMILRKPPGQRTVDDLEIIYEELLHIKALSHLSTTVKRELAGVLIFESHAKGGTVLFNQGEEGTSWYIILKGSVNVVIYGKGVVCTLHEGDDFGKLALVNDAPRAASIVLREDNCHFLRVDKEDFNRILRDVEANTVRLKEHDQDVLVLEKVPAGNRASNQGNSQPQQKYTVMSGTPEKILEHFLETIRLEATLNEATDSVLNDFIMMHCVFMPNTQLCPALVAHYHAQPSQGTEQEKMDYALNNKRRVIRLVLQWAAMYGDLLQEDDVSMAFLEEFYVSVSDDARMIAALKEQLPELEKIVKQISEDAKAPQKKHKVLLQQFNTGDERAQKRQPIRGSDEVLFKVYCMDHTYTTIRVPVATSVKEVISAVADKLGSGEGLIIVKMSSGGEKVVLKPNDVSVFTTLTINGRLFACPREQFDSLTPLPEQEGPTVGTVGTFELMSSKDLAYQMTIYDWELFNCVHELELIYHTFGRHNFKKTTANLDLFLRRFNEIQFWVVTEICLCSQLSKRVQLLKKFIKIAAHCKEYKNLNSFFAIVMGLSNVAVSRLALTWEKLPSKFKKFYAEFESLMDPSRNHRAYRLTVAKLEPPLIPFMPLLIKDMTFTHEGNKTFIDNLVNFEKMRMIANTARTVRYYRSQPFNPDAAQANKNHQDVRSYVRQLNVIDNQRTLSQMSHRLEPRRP
A general note: Quantitative high-throughput screening tests each substance at several concentrations.
Consider `CCOC(=O)OC(C)OC(=O)[C@@H]1N2C(=O)[C@@H](NC(=O)[C@H](N)c3ccccc3)[C@H]2SC1(C)C` (some centres not stated), for which the activation is inactive: -9.66%.
On to `COc1ccc(C2OCC3(COC(C)=O)C(C)C=C(C)C2C3C)cc1` (configuration not stated), for which the activation was inactive: -20.6%.
Under `CCCCCCCCCCCCCCCC[N+](C)(C)CC` stands inactive: -8.9%; under `CCOC(=O)[C@H](CCc1ccccc1)N[C@H]1CCc2ccccc2N(CC(=O)O)C1=O`, inactive: -11%.
In the case of `CC1=CC(=O)C2C(C)(C)CCC[C@@]2(C)[C@@]1(O)CCc1ccoc1` (some centres not stated), the activation is inactive: -1.92%.
Consider `COC(=O)/C=C\c1cc(O)ccc1O`, for which the activation is inactive: -11.4%.
With `COc1ccc(-c2nc3cnc(Oc4ccccc4)nc3n(Cc3cccs3)c2=O)cc1`, the activation is inactive: -2.11%.
Consider `CCC(CCC(C)C1CCC2C3CC=C4CC(OC(C)=O)CC[C@@]4(C)C3CC[C@@]12C)C(C)C` (some centres not stated), for which the activation is inactive: -26.5%.
On to `CCCCNc1ccc(C(=O)OCCN(CC)CC)cc1`, for which the activation is inactive: -14.1%.
Turning to `COc1cc2c(cc1OC)-c1cc(=Nc3c(C)cc(C)cc3C)n(C)c(=O)n1CC2`, the activation is inactive: -14.2% and inactive: -24.7%.
With `COc1ccc(Oc2ncc3nc(-c4cc(F)cc(F)c4)c(=O)n(CCC#N)c3n2)cc1`, the activation was inactive: -16.4%.
For the molecule `N#CCCn1c(=O)c(-c2cccs2)nc2cnc(N3CCOCC3)nc21`, the activation is inactive: 2.82%.
Take `CC1=C(C(=O)O)N2C(=O)C(NC(=O)C(N)C3=CCC=CC3)C2SC1` (configuration not stated): the activation was inactive: -5.59%.
Consider `CCNC(=O)N1CCN(CCCC(c2ccc(F)cc2)c2ccc(F)cc2)CC1`, for which the activation is inactive: -11.2% and inactive: -17.1%.
Then `Fc1ccc(C(OCCCc2cnc[nH]2)c2ccc(F)cc2)cc1`, with inactive: -65.8%; and `CCOC(=O)C[C@H]1c2ccc(C(F)(F)F)cc2S(=O)(=O)N1C1CCCC1`, with inactive: -26.6%; and `O=c1c(-c2ccc(F)c(F)c2)nc2cncnc2n1Cc1ccccc1`, with inactive: -20.1%.
For the molecule `O=c1[nH]c(Cl)nc2c1ncn2C1OC(CO)C(O)C1O` (configuration not stated), the activation is inactive: -14%.
`COC(=O)N1CCC2(CCCN(Cc3cc(C(F)(F)F)cc(C(F)(F)F)c3)C2)CC1`: the activation is inactive: -27.8%.
On to `CCN(CC)CCC(=O)N1c2ccccc2Sc2ccc(C(F)(F)F)cc21`, for which the activation is inactive: 4.09%.
In the case of `O=C(NCC1Cc2cccc(-c3cnccn3)c2O1)C1COc2ccccc2O1` (configuration not stated), the activation is inactive: -10%.
Regarding `CNc1cc(-c2ccccc2CN(C)C)ncn1`, the activation was inactive: -7.79%.
On to `O=C1CCC(c2ccc(-n3ccnc3)cc2)=NN1`, for which the activation was inactive: -7.5% and inactive: -44%.
Under `CS(=O)(=O)Nc1cc(C(=O)N2CCNC(=O)C2)c2c(c1)ncn2CCc1ccccc1` stands inactive: 1.91%.
As for `COc1ccccc1CCc1nc2ccccc2n1C1CCN(C(=O)c2cn3ccsc3n2)CC1`, the activation is inactive: -19%.
With `COc1ccc(NC(=O)N2CCCC3(CCN(C(=O)c4cccn4C)CC3)C2)cc1`, the activation is inactive: -8.96%.
Consider `CC(C)c1cnc(NC(=O)Cc2ccccc2)s1`, for which the activation is inactive: -13%.
Then `COc1ccc(-c2nc3cnc(Nc4cccc(OC)c4)nc3n(C3CC3)c2=O)cc1`, with inactive: 9.38%; and `CC(C)n1c(/C=C/[C@@H](O)C[C@@H](O)CC(=O)O)c(-c2ccc(F)cc2)c2ccccc21`, with inactive: -44.4%; and `Cn1c(=O)c(-c2ccccc2)c(O)c2ccccc21`, with inactive: -21.1%.
Under `COC1=C(OC)C(=O)C(CCCCCCCCCCO)=C(C)C1=O` stands inactive: -18.3%; under `FC(F)(F)c1ccccc1-c1ccc2ncnc(NCCN3CCOCC3)c2c1`, inactive: 0.881%.
